# Source: paper PMC4336329 (PLoS ONE, 2015)
# The whole screen tested about 310,000 compounds, of which about 14,000 (4.5%) showed an effect of 50% or more. Effects have a minus sign here. The list shows a part of the results.
# Biological target: human ether-à-go-go-related gene (hERG) potassium channel (human, UniProt Q12809)
# Test: primary screen, population patch clamp on CHO cells stably expressing hERG
# 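Note: peak tail current of the secondary pulse compared with the same well before compound.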
# Sequence of human ether-à-go-go-related gene (hERG) potassium channel (Q12809 whole entry, looked up): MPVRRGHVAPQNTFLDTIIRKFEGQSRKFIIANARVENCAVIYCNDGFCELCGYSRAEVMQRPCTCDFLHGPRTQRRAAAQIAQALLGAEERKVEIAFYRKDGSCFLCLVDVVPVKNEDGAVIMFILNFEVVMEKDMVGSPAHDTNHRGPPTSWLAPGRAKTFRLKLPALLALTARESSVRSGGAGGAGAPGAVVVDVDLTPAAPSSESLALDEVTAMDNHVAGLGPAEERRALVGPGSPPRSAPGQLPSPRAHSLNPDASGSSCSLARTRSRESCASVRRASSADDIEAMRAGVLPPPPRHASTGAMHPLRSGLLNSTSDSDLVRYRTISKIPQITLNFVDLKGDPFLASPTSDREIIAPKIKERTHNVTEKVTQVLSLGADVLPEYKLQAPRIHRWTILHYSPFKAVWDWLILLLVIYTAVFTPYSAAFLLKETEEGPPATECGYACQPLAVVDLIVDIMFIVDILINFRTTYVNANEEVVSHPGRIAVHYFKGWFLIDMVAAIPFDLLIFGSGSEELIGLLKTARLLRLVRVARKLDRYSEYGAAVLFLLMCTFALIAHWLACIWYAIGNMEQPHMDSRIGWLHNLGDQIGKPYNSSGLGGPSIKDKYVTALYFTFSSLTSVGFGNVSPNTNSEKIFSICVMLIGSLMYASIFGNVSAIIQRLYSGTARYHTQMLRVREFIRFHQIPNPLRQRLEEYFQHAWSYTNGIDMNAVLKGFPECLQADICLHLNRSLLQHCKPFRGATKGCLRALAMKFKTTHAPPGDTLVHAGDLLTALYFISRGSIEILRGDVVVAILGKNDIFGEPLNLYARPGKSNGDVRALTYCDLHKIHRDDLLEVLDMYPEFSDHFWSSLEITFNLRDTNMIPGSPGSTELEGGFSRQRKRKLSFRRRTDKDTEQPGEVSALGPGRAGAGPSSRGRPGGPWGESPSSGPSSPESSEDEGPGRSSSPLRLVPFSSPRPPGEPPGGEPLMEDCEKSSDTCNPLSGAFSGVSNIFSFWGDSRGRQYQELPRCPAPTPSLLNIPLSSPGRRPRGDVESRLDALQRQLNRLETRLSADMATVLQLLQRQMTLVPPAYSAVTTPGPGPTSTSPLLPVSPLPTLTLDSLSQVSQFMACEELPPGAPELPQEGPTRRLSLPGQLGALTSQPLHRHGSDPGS
row,SMILES,"hERG current change (%, negative = inhibition) at 10uM [%]"
1,Cc1ccc(CN2CC(=O)N3[C@H]4c5ccccc5OC[C@@H]4[C@H](c4ccccc4)[C@]3(C)C2=O)cc1,19.3
2,CCN(CC)C(=O)Cc1cc(C(=O)O)c2ccccc2n1,14
3,CCN1CCN(c2nc3c(c(=O)[nH]2)CCCC3)CC1,-1.13
4,CCN1CCc2c(C#N)c(N3CCCCC3)nc(N3CCOCC3)c2C1,-19.7
5,CCCCn1c(C(C)NC(=O)CC)nc2ccccc21 (stereo not shown),-21.9
6,Cc1ccc2c(c1)c1nnc(SCC(=O)Nc3ccccc3C(F)(F)F)nc1n2CC(=O)O,11.2
7,O=C1CN(C(=O)c2ccccc2)C(c2ccccc2)c2cc(F)ccc2N1 (stereo not shown),-75.1
8,CC(N=Cc1cc([N+](=O)[O-])ccc1O)c1ccccc1 (stereo not shown),11.7
9,COc1cccc(-c2nc(CS(=O)(=O)CC(=O)Nc3cccc(C)c3C)c(C)o2)c1,17.7
10,CCCNC(=O)NC(=O)CSc1nc2ccccc2c(=O)n1Cc1ccncc1,-36.4
11,Cn1c(=O)oc2cc(S(=O)(=O)NCCc3ccccc3)ccc21,-14
12,O=C(Nc1nnc(C2CCCC2)s1)C1CCC1,-0.134
13,COc1ccc(S(=O)(=O)Cc2ccc(C(=O)N3CCOCC3)o2)cc1,1.23
14,CCNC(=S)N(CCc1ccc(OC)c(OC)c1)Cc1cc2cc(OC)ccc2[nH]c1=O,-56.9
15,CCC(O)(c1ccccc1)C(CN1CCOCC1)c1ccccc1.Cl (stereo not shown),26.1
16,CC1=C(C)[N+](=O)C2(O)CCCCC2(C)N1[O-] (stereo not shown),10.8
17,Cc1ccc(C(=O)N/N=C2\CCCc3ccccc32)c(C)c1,7.19
18,CC1CCCN(C2(O)C(=O)Nc3ccc(Br)cc32)C1 (stereo not shown),-5.89
19,COc1ccccc1NC(=O)N1CCCC1C(=O)NC12CC3CC(CC(C3)C1)C2 (stereo not shown),7.98
20,O=C1NC(=Nc2ccccc2)CS1,15.7

row,SMILES,"hERG current change (%, negative = inhibition) at 10uM [%]"
1,C/C(=N\Nc1cc(C)nc(NCc2ccccc2)n1)c1cccc([N+](=O)[O-])c1,13.2
2,O=C(Nc1ccccc1)Nc1ccc(S(=O)(=O)N2CCCCC2)cc1,9.74
3,CC(/C=N\NC(=O)c1cccnc1)c1ccccc1 (stereo not shown),4.58
4,Cc1ccccc1-n1c(O)c(/C=N/NC(=O)c2ccccc2O)c(=O)[nH]c1=S,12.2
5,CSc1ncc(CN2CCC(C(=O)Nc3cccc(-c4cscn4)c3)CC2)cn1,-35.7
6,Nc1cc(N)nc(SCC(=O)Nc2ccccc2N2CCOCC2)n1,2.73
7,CCOC(=O)c1cccc(OS(=O)(=O)Cc2ccccc2)c1,-21.8
8,CC(C)(C=O)Cc1cc(C(C)(C)C)c(O)c(C(C)(C)C)c1,-13.6
9,Cc1csc(=O)n1CC(=O)OCC(=O)NNC(=O)c1ccccc1,17.5
10,Cc1ccc(-c2nnc(COC(=O)c3cccs3)o2)cc1,-13.7
11,COc1cc(C2NC(=S)NC(C)=C2C(=O)Nc2cc(C)cc(C)c2)ccc1O (stereo not shown),19.6
12,O=C(Cn1cncn1)N/N=C/c1cc([N+](=O)[O-])ccc1O,1.67
13,O=C(NCc1nc2ccccc2[nH]1)C1=C[C@@H](c2csc3ccccc23)C[C@@H](OCCCCO)O1,-29.6
14,CC(C)N(C(=O)CSc1nnc(CSc2ncccn2)n1C)C(C)C,32.8
15,CCCC(=O)Nc1ccc(NC(=O)C2CC2)cn1,2.49
16,COc1ccc(OC)c(-n2c(-c3cnccn3)n[nH]c2=S)c1,18.3
17,COc1ccc(S(=O)(=O)NC(CC(=O)NCc2ccco2)C(C)C)cc1 (stereo not shown),-0.105
18,CCc1c(C)sc(NC(=O)c2cc(C)no2)c1C#N,10.3
19,COc1ccc(CCNC(=O)/C=C/c2ccc(C)cc2)cc1OC,-5.45
20,O=C(Cn1ccc2ccccc2c1=O)NCCC(=O)N1CCN(C2CCCCC2)CC1,-2.26

row,SMILES,"hERG current change (%, negative = inhibition) at 10uM [%]"
1,CN(CC(=O)Nc1c(Cl)cccc1Cl)C(=O)Cc1cccs1,2.98
2,COc1ccc(-c2cc(C(=O)O)c3sc(N4CCCCC4)nc3n2)cc1OC,-16.6
3,O=C(Nc1ccc(Cl)cc1)c1ccc(OC2CSC2)cc1,11.6
4,CC12CCC(C(=O)NNC(=O)c3ccc(Br)cc3)(OC1=O)C2(C)C (stereo not shown),26.7
5,COc1ccc(/C=C(\C#N)C(=O)NCc2ccccc2)cc1,19.4
6,COc1ccc(-c2nnc3sc(-c4ccccc4OC)nn23)cc1,-0.411
7,Clc1cc(Br)ccc1OCCOCCN1CCCC1.O=C(O)C(=O)O,-57.1
8,CCOC(=O)c1cnn(CCOC(=O)c2ccccc2F)c1NC(=O)c1ccccc1F,-15.6
9,CCOC(=O)N1CCN(C(=S)NC(=O)c2cc(Br)ccc2Cl)CC1,3.59
10,COc1ccccc1N=C1SC(C)CN1C(=O)C1CCC1 (stereo not shown),11.2
11,CCOC(=O)C1=C(N)Oc2cc(C)n(C)c(=O)c2C1c1ccncc1 (stereo not shown),1.5
12,Oc1ccc(Br)cc1/C=N/Nc1nc(N2CCCCC2)nc(N2CCOCC2)n1,23.5
13,COc1cc(CNCCN2CCOCC2)ccc1OCC(=O)NC(C)(C)C.Cl,6.17
14,COc1ccc(/C=N/NC(=O)CCCOc2ccc(Cl)cc2Cl)cc1,25.9
15,COC(=O)C1=NN(c2ccccc2)C2(S1)S/C(=C\c1ccccc1)C(=O)N2c1ccccc1 (stereo not shown),13.3
16,CC1(N(O)/C=C2\C=CC=CC2=O)CCCCC1=O (stereo not shown),16.1
17,CC(=NCCO)c1c(O)n(C2CCCCC2)c(=O)[nH]c1=O,-5.36
18,Cc1ccc(S(=O)(=O)NNC(=O)c2sccc2-n2cccc2)cc1,-21.7
